# Assay results as given in PubChem BioAssay (NCATS).
# This is one part of the list. The main result of the screen is listed elsewhere. These columns were measured beside it and carry no call. For some assays here: Most of these compounds were active or inconclusive in the main read-out, so they are no random draw. For some assays here: Potencies come from curve fits of mixed quality, noted in brackets.
# Columns and labels:
# [1] = qHTS Assay for Lipid Storage Modulators (AID 1519); settings: Drosophila S3 cells, BODIPY lipid droplet/cell ratio, laser cytometry, cells loaded with oleic acid
# In short: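 Cells seeded at 5,000 per well were treated with compounds over a concentration series and loaded with oleic acid (400 uM, as added). Lipid droplet fluorescence (488 nm excitation, 500-530 nm channel) was read by laser-scanning cytometry and normalized to 20 uM Triacsin C.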
# [2] = qHTS Assay for Modulators of Human Peripheral Myelin Protein 22 (PMP22) Expression/Activity (AID 1967); settings: Cell-based PMP22 reporter, dual-color luciferase ratio
# In short: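 Quantitative HTS in a mouse Schwann cell line expressing dual click beetle luciferases: Pmp22 promoter (green) and control EF-alpha promoter (red). After 24h treatment, corrected green/red signal ratio gave %Activity relative to untreated cells.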
# [3] = biological target: Catechol O-methyltransferase (Homo sapiens) (UniProt P21964); test: Confirmatory Screen for Target Class Profiling of Small Molecule Inhibitors of Methyltransferases (AID 1745852); settings: MTase-Glo luminescence, SAH detection, recombinant enzyme; measured here: COMT inhibition potency;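 note: inhibitor potency for blocking SAH production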
# UniProt P21964, sequence (P21964 whole entry, looked up): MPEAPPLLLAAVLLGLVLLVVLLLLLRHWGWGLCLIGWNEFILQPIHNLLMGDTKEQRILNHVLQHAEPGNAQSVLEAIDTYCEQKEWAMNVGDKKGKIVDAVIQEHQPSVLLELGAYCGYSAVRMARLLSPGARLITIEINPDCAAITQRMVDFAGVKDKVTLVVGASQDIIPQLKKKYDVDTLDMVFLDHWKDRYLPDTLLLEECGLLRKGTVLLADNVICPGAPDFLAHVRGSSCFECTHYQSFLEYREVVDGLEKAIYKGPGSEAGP
# [4] = qHTS Validation Assay to Find Inhibitors of Chronic Active B-Cell Receptor Signaling (AID 485345); settings: ABC-DLBCL cells, chronic BCR signaling reporter
# In short: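 TMD8 ABC-DLBCL cells with dox-inducible green luciferase–IκBα fusion and red native luciferase; compounds 46 uM–3 nM, 4 h at 37C with doxycycline in 0.5% FBS IMDM. Green/red ratio normalized to basal and 10 uM MG-132.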
# [5] = biological target: Histamine N-methyltransferase (Homo sapiens) (UniProt P50135); test: Confirmatory Screen for Target Class Profiling of Small Molecule Inhibitors of Methyltransferases (AID 1745852); settings: MTase-Glo luminescence, SAH detection, recombinant enzyme; measured here: HNMT inhibition potency;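 note: inhibitor potency for blocking SAH production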
# UniProt P50135, sequence (P50135 whole entry, looked up): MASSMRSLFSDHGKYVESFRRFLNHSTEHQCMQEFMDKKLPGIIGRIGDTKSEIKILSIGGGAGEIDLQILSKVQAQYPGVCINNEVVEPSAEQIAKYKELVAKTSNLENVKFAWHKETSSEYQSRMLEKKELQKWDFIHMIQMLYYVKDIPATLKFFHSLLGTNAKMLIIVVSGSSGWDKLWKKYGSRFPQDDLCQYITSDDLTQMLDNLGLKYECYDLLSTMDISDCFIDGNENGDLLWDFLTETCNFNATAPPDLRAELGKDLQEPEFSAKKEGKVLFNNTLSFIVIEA
# [6] = qHTS drug screen for cell cycle checkpoint inhibitors in PARPi-resistant BRCA-mutant ovarian cancer cell lines. (AID 1963452); settings: PEO1/OlaR viability, CellTiter-Glo luminescence, 96 h
# In short: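 PEO1, PEO4 and PEO1/OlaR ovarian cancer cells, 600 per well, exposed 96 h at 37C to a dilution series. Viability read by CellTiter-Glo luminescence, normalized to DMSO and empty wells; activity summarized as Z-AUC.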
# [7] = qHTS for identification of novel therapeutic agents for treatment of microphthalmiaassociated transcription factor (MiT) renal cell carcinoma (RCC) (AID 1963991); settings: CellTiter-Glo, 48 h; for z-score: stronger effect = lower value
# In short: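 Three TFE3-fusion RCC lines (UOK109, UOK124, UOK145), 500 cells/well in complete medium, were treated with MIPE 4.0 compounds for 48 hours at 37 C. Viability was by CellTiter-Glo luminescence, normalized to DMSO (100%) and empty wells (0%); curves fitted over 11 concentrations.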
# [8] = qHTS assay for small molecule antagonists of peroxisome proliferator-activated receptor delta signaling (AID 588535); settings: HEK293T PPARd-UAS-bla, beta-lactamase FRET ratio, 18 h; 460 nm channel;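 note: cells co-treated with a PPAR-delta agonist as stimulator during compound exposure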
# In short: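 Inhibition of PPAR-delta response element-driven beta-lactamase expression is measured in HEK293T cells exposed to a compound titration series for 18 hrs at 37 C. Half-maximal inhibition comes from Hill equation fitting.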
# [9] = qHTS assay for small molecule agonists of retinoid X receptor alpha signaling (AID 588544); settings: HEK293T RXRa-UAS-bla, beta-lactamase reporter, 18 h; 530 nm emission
# [10] = S16 Schwann cell PMP22 intronic element beta-lactamase assay (AID 624044); settings: S16 rat Schwann cells, PMP22 element beta-lactamase FRET, 24 h; note: nearly all actives have a fitted effect of over 15% in size
# In short: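 Beta-lactamase reporter under a PMP22 intronic regulatory element in stable S16 rat Schwann cells; 24 h compound exposure. 460 nm blue signal normalized between DMSO (0%) and potassium clavulanate, with 535 nm FRET tracking viability; curves classed by r2 and response.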
# [11] = measured here: cell count channel max response
# [12] = measured here: lipid channel max response
# [13] = measured here: red reporter channel AC50, EF-alpha promoter control reporter in MSC80 mouse Schwann cells
# [14] = measured here: green reporter channel AC50, mouse Pmp22 promoter in mouse Schwann cells
# [15] = measured here: CBR control luciferase (viability counter)
# [16] = TFE3-RCC UOK109 viability, measured here: UOK109 Z-AUC
# [17] = TFE3-RCC viability, measured here: UOK124 Z-AUC
# [18] = TFE3-RCC viability, measured here: UOK145 Z-AUC
# [19] = measured here: PEO1 parental viability
# [20] = TFE3-RCC viability, measured here: UOK145 cell viability
# Tags give direction and shape of the fitted curve.
smiles,measurement,setting,value
CN(C)C(=O)/N=N/C(=O)N(C)C,max response,[1]; [11],29.7%
same,max response,[1]; [12],30%
same,AC50,[2]; [13],"95.3 µM [falling, single point]"
COC(=O)[C@@H](N)Cc1ccc(O)c(O)c1,max response,[1]; [11],65.6%
same,max response,[1]; [12],67.9%
same,AC50,[2]; [13],"60.1 µM [falling, partial curve, poor fit]"
same,IC50,[3],"7.69 µM [rising, partial curve]"
CC(/C=C/c1cccc(Oc2ccc(F)cc2)c1)N(O)C(N)=O (centres undefined),max response,[1]; [11],36.5%
same,max response,[1]; [12],37.8%
same,AC50,[2]; [13],"67.5 µM [falling, partial curve, poor fit]"
CSc1nc(N)c2ncn([C@@H]3O[C@H](COP(=O)(O)OP(=O)(O)OP(=O)(O)O)[C@H](O)[C@H]3O)c2n1,max response,[1]; [11],68.7%
same,max response,[1]; [12],70.1%
same,AC50,[2]; [13],"84.9 µM [falling, single point]"
O=C(O)/C=C/c1ccc(O)c(O)c1,max response,[1]; [11],49.9%
same,max response,[1]; [12],48.8%
same,AC50,[2]; [13],"84.9 µM [falling, single point]"
same,IC50,[3],"3.43 µM [rising, full curve]"
Fc1ccc(C(OCCCc2cnc[nH]2)c2ccc(F)cc2)cc1,max response,[1]; [11],47.5%
same,max response,[1]; [12],51.1%
same,AC50,[2]; [14],"75.7 µM [falling, partial curve]"
same,AC50,[2]; [13],"84.9 µM [falling, partial curve]"
same,AC50,[4]; [15],"18.4 µM [falling, single point]"
same,IC50,[5],"15.3 µM [falling, partial curve]"
NC(=O)c1cccc(N)c1,max response,[1]; [11],39.7%
same,max response,[1]; [12],40.2%
same,AC50,[6]; measured here: PEO4 viability,"24.5 µM [falling, single point]"
same,z-score,[7]; [16],-0.216
same,z-score,[7]; [17],0.0823
same,z-score,[7]; [18],0.602
COc1ccccc1CNCCCCCCNCCCCCCCCNCCCCCCNCc1ccccc1OC,max response,[1]; [11],64.6%
same,max response,[1]; [12],67%
same,AC50,[2]; [14],"84.9 µM [falling, single point]"
same,AC50,[2]; [13],"67.5 µM [falling, partial curve]"
same,IC50,[5],"19.3 µM [falling, partial curve]"
NC(Cc1ccc(Cl)cc1)C(=O)O (centres undefined),max response,[1]; [11],53%
same,max response,[1]; [12],57.2%
same,AC50,[2]; [13],"33.8 µM [falling, partial curve]"
Oc1ccc(C2CNCCc3c2cc(O)c(O)c3Cl)cc1 (centres undefined),max response,[1]; [11],69.3%
same,max response,[1]; [12],70.6%
same,AC50,[2]; [13],"84.9 µM [falling, single point]"
same,IC50,[3],"0.432 µM [falling, full curve]"
Cc1[nH]c(=O)c(C#N)cc1-c1ccncc1,max response,[1]; [11],38%
same,max response,[1]; [12],51.7%
same,max response,[8],46.8%
same,max response,[9],-0.182%
same,AC50,[6]; [19],"0.0069 µM [falling, full curve, poor fit]"
same,z-score,[7]; [16],-0.411
same,z-score,[7]; [17],0.863
same,z-score,[7]; [18],0.19
CCc1c(C)[nH]c2c1C(=O)C(CN1CCOCC1)CC2 (centres undefined),max response,[1]; [11],45.4%
same,max response,[1]; [12],45.6%
same,AC50,[2]; [14],"84.9 µM [falling, single point]"
same,IC50,[5],"27.3 µM [falling, single point]"
NC(CO)C(=O)NNCc1ccc(O)c(O)c1O (centres undefined),max response,[1]; [11],69%
same,max response,[1]; [12],71.4%
same,AC50,[2]; [14],"84.9 µM [falling, single point]"
same,AC50,[2]; [13],"84.9 µM [falling, single point]"
same,AC50,[6]; measured here: PEO4 viability,"13.8 µM [falling, partial curve]"
Oc1cc(O)c2c(c1)O[C@H](c1ccc(O)c(O)c1)[C@@H](O)C2,max response,[1]; [11],55.7%
same,max response,[1]; [12],55.9%
same,AC50,[2]; [13],"84.9 µM [falling, single point]"
same,IC50,[3],"3.85 µM [rising, full curve]"
COc1nc(C)nc(Cl)c1NC1=NCCN1,max response,[1]; [11],44.9%
same,max response,[1]; [12],43.7%
same,AC50,[10]; measured here: 460 nm blue channel,"4.77 µM [falling, full curve]"
same,AC50,[10]; measured here: 530 nm viability channel,"6.31 µM [falling, partial curve]"
same,AC50,[6]; [19],"5.49 µM [rising, partial curve, poor fit]"
COc1ccc(CCN(C)CCCOc2ccc(S(=O)(=O)c3[nH]c4ccccc4c3C(C)C)cc2)cc1OC,max response,[1]; [11],29.5%
same,max response,[1]; [12],-29.6%
same,AC50,[6]; [19],"19.5 µM [falling, partial curve]"
same,AC50,[6]; measured here: PEO4 viability,"13.8 µM [falling, single point]"
same,z-score,[7]; [16],0.785
same,z-score,[7]; [17],0.509
same,AC50,"[7]; TFE3-RCC viability, measured here: UOK124 cell viability","23.5 µM [falling, single point]"
same,z-score,[7]; [18],0.399
same,AC50,[7]; [20],"0.935 µM [falling, partial curve, poor fit]"
NC(=NCc1ccccc1)NC(=O)c1nc(Cl)c(N)nc1N,max response,[1]; [11],58.6%
same,max response,[1]; [12],59.2%
same,AC50,[4]; measured here: CBG/CBR ratio read-out,"29.1 µM [falling, single point]"
same,AC50,[4]; [15],"25.9 µM [falling, single point]"
same,z-score,[7]; [16],0.211
same,z-score,[7]; [17],0.668
same,z-score,[7]; [18],-0.0201
same,AC50,[7]; [20],"14.8 µM [falling, partial curve]"
CN(C)CC[C@@H](c1ccc(Br)cc1)c1ccccn1,max response,[1]; [11],55%
same,max response,[1]; [12],54%
same,AC50,[2]; [14],"84.9 µM [falling, single point]"
same,AC50,[2]; [13],"84.9 µM [falling, single point]"
same,IC50,[5],"21.7 µM [falling, partial curve, poor fit]"
